Here are results for one protein from PMC3699067 (Human Molecular Genetics, 2013).

The data set deals with the molecule itself. Nature of the data set: cross-linking.

B1: TDP-43([…]), untagged C-terminal deletion fragment (domain or fragment)
chain: not shown
B1: the “stoichiometry N” value came to 2.
